Source: PubChem BioAssay AID743255 (National Center for Advancing Translational Sciences (NCATS), 2014)
The whole screen tested about 390,000 compounds, of which about 910 (0.23%) were called active. Roughly 5% stayed inconclusive and do not appear here. Calls come from the whole dose curve; as a rule, active = well fitted inhibition curve with a large enough effect; inconclusive = small, poorly fitted or top-dose-only effect; inactive = no such curve, though single readings can be large or run the other way. Only a part is listed here, and it is no random draw.

target: Ubiquitin carboxyl-terminal hydrolase 1 (Homo sapiens) (UniProt O94782); assay: Inhibitors of USP1/UAF1: Primary Screen; settings: recombinant USP1/UAF1, Ub-Rhodamine cleavage fluorescence; series mostly up to 57.1 µM; activity change, negative = inhibition: at the top concentration; note: nearly all actives have a fitted effect of over 60% in size
From the text: Deubiquitinating enzymes (DUBs) are a class of enzymes that can cleave isopeptide bond formed between the C-terminal carboxylate of ubiquitin and a lysine side-chain amino group on the target protein. Among them, ubiquitin specific proteases (USPs) constitute the largest DUB family. Human USPs are emerging as promising targets for pharmacological intervention because of their connection to a number of human diseases, including prostate, colon and breast cancer (1, 2), pediatric acute lymphoblastic leukemia (3), and familial cylindromatosis (4). The advantage of inhibiting USPs lies in the potential specificity of therapeutic intervention that can lead to better efficacy and reduce nonspecific side effects. In a collaboration between the University of Delaware and the NIH Chemical Genomics Center, a high-throughput screen assay was developed to screen for USP1/UAF1 inhibitors. This miniaturized assay has a fluorescent read-out and is used to screen the NIH Molecular Libraries Small Molecule Repository (MLSMR) in order to identify a small molecule that inhibits USP1. NIH Chemical Genomics Center [NCGC] NIH Molecular Libraries Probe Centers Network [MLPCN] MLPCN Grant: DA030552 Assay Submitter (PI): Zhihao Zhuang, University of Delaware 1. Priolo, C., et al. (2006) The isopeptidase USP2a protects human prostate cancer from apoptosis. Cancer Res 66, 8625-8632 2. Popov, N., et al. (2007) The ubiquitin-specific protease USP28 is required for MYC stability. Nat Cell Biol 9, 765-774 3. De Pitta, C., et al. (2005) A leukemia-enriched cDNA microarray platform identifies new transcripts with relevance to the biology of pediatric acute lymphoblastic leukemia. Haematologica 90, 890-898 4. Kovalenko, A., et al. (2003) The tumour suppressor CYLD negatively regulates NF-kappaB signalling by deubiquitination. Nature 424, 801-805
3 microliters of reagents (buffer in columns 3 and 4 as negative control and 1nM USP1/UAF1 complex in columns 1, 2, and 5-48) are dispensed into Greiner black solid bottom 1536-well assay plates. Compounds are then transferred via Kalypsys pin tool equipped with 1536-pin array (10nl slotted pins, V&P Scientific, San Diego, CA). Following an incubation step of 15 min at room temperature, 1ul of Ub-Rho substrate (150nM final concentration) is added to initiate the reaction. The plates are immediately centrifuged at 1000 rpm for 15 seconds, and subsequently transferred to a ViewLux high-throughput CCD imager (PerkinElmer) wherein kinetic measurements of fluorescence are acquired using 480 nm excitation/540 nm emission filter set (6 reads every 60 seconds, see Table 1). All reagents are diluted in an assay buffer consisting of 50mM HEPES (pH 7.8), 0.5mM EDTA, 0.1 mg/ml BSA, 1mM TCEP, and 0.01% Tween-20.
% is set by controls: 0 for no effect and ±100 for the full control effect; potency is the fitted concentration of half-maximal effect.

Sequence of UniProt O94782 (O94782 whole entry, looked up): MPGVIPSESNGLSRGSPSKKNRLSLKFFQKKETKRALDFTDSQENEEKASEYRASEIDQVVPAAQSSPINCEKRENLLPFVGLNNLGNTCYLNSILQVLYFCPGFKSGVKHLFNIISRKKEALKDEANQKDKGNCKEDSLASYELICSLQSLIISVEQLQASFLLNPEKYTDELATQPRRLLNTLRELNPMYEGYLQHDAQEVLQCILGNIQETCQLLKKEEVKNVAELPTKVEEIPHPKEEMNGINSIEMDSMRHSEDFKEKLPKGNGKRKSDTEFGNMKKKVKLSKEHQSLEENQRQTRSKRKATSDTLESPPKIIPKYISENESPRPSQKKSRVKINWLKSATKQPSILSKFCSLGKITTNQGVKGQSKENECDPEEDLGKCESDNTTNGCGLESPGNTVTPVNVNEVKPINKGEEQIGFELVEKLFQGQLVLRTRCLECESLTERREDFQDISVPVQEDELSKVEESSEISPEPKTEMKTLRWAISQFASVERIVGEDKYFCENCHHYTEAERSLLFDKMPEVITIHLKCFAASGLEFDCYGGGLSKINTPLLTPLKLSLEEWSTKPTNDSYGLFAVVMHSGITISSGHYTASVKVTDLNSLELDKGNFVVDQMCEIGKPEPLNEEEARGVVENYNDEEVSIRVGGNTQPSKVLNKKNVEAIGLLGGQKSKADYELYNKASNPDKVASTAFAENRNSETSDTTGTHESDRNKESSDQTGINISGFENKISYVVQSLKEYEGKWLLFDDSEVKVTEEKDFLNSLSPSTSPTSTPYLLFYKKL

| Compound | activity change, negative = inhibition | Potency |
| --- | --- | --- |
| C[C@]12CCC3C(CC[C@H]4C[C@@H](O)CC[C@]34C)C1CCC2=O (some centres not stated) | inactive: -4.02% |  |
| C[C@]12CC[C@H](O)C[C@@H]1CC[C@H]1[C@H]3CCC(=O)[C@@]3(C)CC[C@@H]12 | inactive: -10.2% |  |
| C[C@@H]1CN([C@H](C)CO)C(=O)CCCn2cc(nn2)CO[C@H]1CN(C)C(=O)Oc1cccc2ccccc12 | inactive: -28.4% |  |
| CSc1ccc(CN2CCN(C(=O)COc3cccc(C)c3)CC2)cc1 | inactive: -4.9% |  |
| CN1C[C@H](C(=O)N[C@]2(C)O[C@@]3(O)[C@@H]4CCCN4C(=O)[C@H](Cc4ccccc4)N3C2=O)CC2c3cccc4[nH]cc(c34)C[C@H]21 (some centres not stated) | inactive: -23.4% |  |
| COc1ccc(OC(=O)N(C)C[C@@H]2OCc3cnnn3CCCC(=O)N([C@H](C)CO)C[C@H]2C)cc1 | inactive: -0.218% |  |
| C[C@]12CCC(=O)C[C@H]1CC[C@@H]1[C@@H]2CC[C@]2(C)C(=O)CC[C@@H]12 | inactive: -3.71% |  |
| O=c1cccc2n1CC1CNCC2C1 (configuration not stated) | inactive: -20.4% |  |
| C[C@@H]1CC2C3CC=C4C[C@@H](O)CC[C@]4(C)C3CC[C@]2(C)[C@H]1O (some centres not stated) | inactive: -7.96% |  |
| O=C1N[C@H](Cc2ccccc2)C(=O)N2[C@@H]3[C@H](C[C@@H]12)c1ccccc1N3OOSc1ccccc1 | inactive: 21.7% |  |
| CCN1/C(=C/C=C/C2=[N+](CC)c3ccccc3C2(C)C)C(C)(C)c2ccccc21 |  | active: 25.1 µM |
| C[C@]12CC[C@H](O)C[C@@H]1CC[C@@H]1[C@@H]2CC[C@]2(C)C(=O)CC[C@@H]12 | inactive: -10.2% |  |
| O=c1[nH]c(=S)n(-c2ccccc2F)c(O)c1C=Nc1ccc(N2CCOCC2)cc1 |  | active: 25.1 µM |
| C[C@]12CCC3C(CC[C@H]4C[C@H](O)CC[C@]34C)C1C[C@@H](O)[C@H]2O (some centres not stated) | inactive: -2.51% |  |
| Cn1cc(C(=O)OCC(=O)Nc2ccccc2Cl)c2ccccc21 | inactive: 211% |  |
| O=C1NCCOC(=O)[C@@H](Cc2ccc(F)cc2)CC/C=C/C[C@H]1CC(=O)N(CCO)Cc1ccccc1 | inactive: -32.1% |  |
| CCOc1ccc(-n2c(O)c(/C=C3\C=Nc4ccccc43)c(=O)[nH]c2=O)cc1 | inactive: 62.9% |  |
| CN1C(=O)NC(=O)/C(=C/c2ccc([N+](=O)[O-])o2)C1=O | inactive: -26.3% |  |
| C[C@]12CCC3[C@@H](CC[C@H]4C[C@@H](O)CC[C@]34C)C1CCC2=O (some centres not stated) | inactive: -12.5% |  |
| O=C1CCN(C(=O)CCCn2c(=O)oc3ccccc32)CC1 | inactive: 80.5% |  |
| Cc1ccc(-c2nn3c(C)nnc3c3ccccc23)cc1S(=O)(=O)NCCO | inactive: -2.83% |  |
| CN(C)/C=c1\sc2c(C#N)cc(C(=O)c3ccc(Br)cc3)n2c1=O | inactive: 134% |  |
| CC(C)[C@H](N)C(=O)OCCOCn1cnc2c(=O)[nH]c(N)nc21 | inactive: 2.77% |  |
| NC1=C(Br)C(=O)c2ccccc2C1=O |  | active: 8.91 µM |

| Compound | activity change, negative = inhibition | Potency |
| --- | --- | --- |
| CCC1(O)C(=O)OCc2c1cc1n(c2=O)Cc2cc3c(N)cccc3nc2-1 (configuration not stated) | inactive: -12.6% |  |
| O=C1NC(=O)C(=Cc2cn(CCOc3ccc4c(c3)OCO4)c3ccccc23)C(=O)N1 | inactive: 153% |  |
| CCn1c(O)c(C=Nc2ccc(N3CCOCC3)cc2)c(=O)n(CC)c1=S |  | active: 17.8 µM |
| COc1ccc(C2CC(=O)Nc3cc4c(cc32)OCO4)c(OC)c1 (configuration not stated) | inactive: 30.9% |  |
| CC1CCC2[C@@H](C)C(=O)OC3O[C@]4(C)CCC1C32OO4 (some centres not stated) | inactive: -12.5% |  |
| CC1(C)C(=O)CC[C@]2(C)C3C(=O)C=C4[C@H]5C[C@@](C)(C(=O)O)CC[C@]5(C)CC[C@]4(C)[C@]3(C)CC[C@@H]12 (some centres not stated) | inactive: -31.2% |  |
| CN(C)C1C(=O)C(C(N)=O)=C(O)C2(O)C(=O)C3=C(O)c4c(O)cccc4C(C)(O)C3C(O)C12 (configuration not stated) | inactive: -20.7% |  |
| CN1Cc2c(c(C#N)c(N)n(C)c2=S)CC1(C)C |  | active: 28.2 µM |
| COC(=O)C1=COC(C)C2CN3CCC4(C(=O)Nc5ccccc54)C3CC12 (configuration not stated) | inactive: -4.54% |  |
| Cc1ccc(N2C(=O)NC(=O)/C(=C\c3ccoc3)C2=O)cc1 | inactive: -30.6% |  |
| C=C1C(=O)O[C@H]2C[C@@H](C)[C@@H]3C=CC(=O)[C@@]3(C)C[C@H]12 | inactive: 33.4% |  |
| CC1CCC/C=C/C2CC(O)CC2C(O)/C=C/C(=O)O1 (configuration not stated) | inactive: 3.85% |  |
| CCCCNC(=O)c1c(N)n(Cc2ccc3c(c2)OCO3)c2nc3ccccc3nc12 |  | active: 28.2 µM |
| COC(=O)C1=CO[C@@H](C)[C@@H]2CN3CC[C@@]4(C(=O)Nc5ccccc54)[C@@H]3C[C@H]12 | inactive: -23.9% |  |
| C[C@@H]1C(=O)O[C@H]2C[C@@]34[C@H]5C[C@@H](C(C)(C)C)[C@]36[C@@H](OC(=O)[C@@H]6O)O[C@@]4(C(=O)O5)[C@]21O | inactive: -6.81% |  |
| COC(=O)C1=CO[C@@H](C)[C@@H]2CN3CC[C@]4(C(=O)Nc5ccccc54)[C@@H]3C[C@H]12 | inactive: -1.59% |  |
| O=C1NCCOC(=O)[C@H](Cc2ccc(F)cc2)CC/C=C/C[C@H]1CC(=O)N(CCO)Cc1ccccc1 | inactive: -11.9% |  |
| Oc1ccc2c3c1O[C@H]1c4oc5ccccc5c4C[C@@]4(O)[C@@H](C2)N(CC2CC2)CC[C@]314 | inactive: -28.9% |  |
| C=CCN1CC[C@]23c4c5ccc(O)c4OC2C(O)CC[C@@]3(O)[C@H]1C5 (some centres not stated) | inactive: -22.9% |  |
| CN1C(CC(=O)c2ccccc2)CCCC1CC(O)c1ccccc1 (configuration not stated) | inactive: 7.67% |  |
| C[C@H]1COC(=O)[C@@H](Cc2ccc(F)cc2)CC/C=C/C[C@@H](CC(=O)N(CCO)Cc2ccccc2)C(=O)N1 | inactive: -0.557% |  |
| O=C1NC(=O)N(c2ccccc2)C(=O)/C1=C\c1ccc([N+](=O)[O-])s1 |  | active: 17.8 µM |
| Cc1cccc(NC(=O)C2CCCN(S(=O)(=O)c3ccc4c(c3)oc(=O)n4C)C2)c1 (configuration not stated) | inactive: -20.9% |  |
